Source: article PMC6919601, “Identification of Plasmodium dipeptidyl aminopeptidase allosteric inhibitors by high throughput screening” (PLoS ONE, 2019)
Values joined by “and” are separate entries in the source; they are usually repeats but may differ in a detail not shown here. Equal values may be shown once. The whole screen tested about 110,000 compounds, of which about 230 (0.21%) showed an effect of 50% or more. This is one part of the list.

Biological target: DPAP1 (Plasmodium falciparum, UniProt Q8IIJ9)
Assay: primary screen, percent inhibition; read by cleavage of a fluorogenic dipeptide substrate; higher = more effect of the substance
Parameters: species or system P. falciparum D10 trophozoite lysates; single well
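Also: 30 min substrate incubation versus DMSO and 10 µM JCP410 controls.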

DPAP1, sequence (Q8IIJ9 whole entry, looked up): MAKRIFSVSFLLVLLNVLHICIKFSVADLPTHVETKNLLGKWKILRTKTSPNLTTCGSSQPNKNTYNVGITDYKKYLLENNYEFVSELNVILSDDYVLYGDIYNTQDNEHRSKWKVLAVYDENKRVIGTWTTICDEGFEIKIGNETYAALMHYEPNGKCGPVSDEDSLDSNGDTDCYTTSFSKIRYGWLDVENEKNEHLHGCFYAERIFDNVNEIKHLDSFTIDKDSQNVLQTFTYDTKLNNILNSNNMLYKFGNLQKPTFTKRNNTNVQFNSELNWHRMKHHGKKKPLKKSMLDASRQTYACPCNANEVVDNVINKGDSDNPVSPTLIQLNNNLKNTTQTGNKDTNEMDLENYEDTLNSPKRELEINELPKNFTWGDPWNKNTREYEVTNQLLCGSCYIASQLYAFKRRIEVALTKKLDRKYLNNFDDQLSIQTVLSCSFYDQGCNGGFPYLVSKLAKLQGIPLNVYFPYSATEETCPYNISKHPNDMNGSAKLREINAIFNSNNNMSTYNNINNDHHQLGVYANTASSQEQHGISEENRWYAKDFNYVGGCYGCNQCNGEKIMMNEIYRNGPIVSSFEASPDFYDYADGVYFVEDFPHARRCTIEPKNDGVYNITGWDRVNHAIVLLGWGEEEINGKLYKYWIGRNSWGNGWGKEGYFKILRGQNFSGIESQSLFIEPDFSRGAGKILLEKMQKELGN

Compound | % Inhibition @ 10 uM
CCCc1nc2ccccc2n2c(-c3ccccc3)c3c(=O)n(C)c(=O)n(C)c3c12 | -1.65%
CCN(CC)CCOC(c1ccccc1)c1ccccc1 | -2.62%
COc1ccc(S(=O)(=O)N2CCC(C(=O)Nc3c(F)cccc3F)CC2)cc1 | -2.22%
COc1cccc(C(NC(=O)c2ccccc2)c2ccc3cccnc3c2O)c1 (centres unmarked) | 6.22%
CN1CCN(C(=O)N2c3ccccc3CCc3ccccc32)CC1 | -0.969%
Cc1ccc(-c2nnc3sc(Cc4ccc(Cl)cc4)nn23)cc1 | 1.25%
CCOc1ccccc1N1C(=O)CC(N2CCC(C(N)=O)CC2)C1=O (centres unmarked) | 0.583%
CCc1ccc(-c2nc(CS(=O)CC(=O)NC3CCCCC3C)c(C)o2)cc1 (centres unmarked) | 0.718%
COc1ccc(C(=O)Nc2ccncc2)cc1 | -1.96%
COc1ccc(C(=O)/C=C/c2cccc3ccccc23)c(OC)c1 | -2.28%
CCOc1ccccc1N1CCN(Cc2ccc3c(c2)OCO3)CC1 | -3.03%
O=C1c2ccc(-c3nc4ccccc4s3)cc2C(=O)N1Cc1ccncc1 | 3.1%
O=S(=O)(NCCOc1ccccc1)c1ccc(CCn2cnnn2)cc1 | -0.403%
COc1ccc(Cn2c(C(=O)O)c(CNCc3ccc(C)o3)c3ccccc32)cc1 | -1.09%
COc1cccc(-c2nc(CSCC(=O)NCC3CCCO3)c(C)o2)c1 (centres unmarked) | 3.99%
CCOc1ccc2nc(NC(=O)C3CCN(c4ncnc5c4nc4n5CCCCC4)CC3)sc2c1 | 4.39%
Cc1cccc(N2CCN(C(=O)Nc3cccc(Cl)c3)CC2)c1C | -3.26%
O=C(Cc1c(C(=O)O)[nH]c2ccc(Cl)cc12)NCC1COc2ccccc2O1 (centres unmarked) | 5.1%
CC1(C)CC(N2C(=O)OC3(CC(C)(C)NC(C)(C)C3)C2(C)O)CC(C)(C)N1 (centres unmarked) | 1.43%
COc1cc(CN(C)C2CCN(C)CC2)cc2c1OCO2 | 3.35%
COc1cc(NCC2CCCCC2)cc(OC)c1 | -3.27%
Cn1c(=O)c2c(nc3n2CCCN3C2CCC(O)CC2)n(C)c1=O (centres unmarked) | -2.86%
CN1CCN(C2CCN(Cc3ccccc3)CC2)CC1 | -3.6%
CCC(Cc1ccccc1)NC(=O)CS(=O)(=O)Cc1nc(-c2ccccc2Cl)oc1C (centres unmarked) | 3.4%
Cc1ccc(NC(=O)CCC(=O)O)cc1F | -2.51%
Cc1cc(C)nc(N2CCN(c3nc(C)cc(C)n3)CC2)n1 | 1.83%

Compound | % Inhibition @ 10 uM
O=C(CCc1ccccc1)c1c(O)cc(O)cc1O | -8.46%
COc1ccc(Br)cc1C1C(C#N)=C(N)Oc2cc(C)n(CC3CCCO3)c(=O)c21 (centres unmarked) | 3.93%
O=C(O)C1CCCN1C(=O)NCc1ccccc1 (centres unmarked) | 3.66%
O=C(Nc1ccc(S(=O)(=O)Nc2nccs2)cc1)c1ccc(S(=O)(=O)N2CCCCC2)cc1 | -5.78%
O=C(Cn1c(=O)c2cccn2c2cccnc21)N1CCN(Cc2ccc3c(c2)OCO3)CC1 | -0.397%
CC1=C(C(=O)OCCOc2ccccc2)C(c2ccncc2)C2=C(O)CC(c3ccccc3)CC2=N1 (centres unmarked) | -1.84%
CCc1c(O)n2nc(-c3ccccc3)ccc2[n+](-c2ccccc2)c1=O | -0.588%
COc1ccc(C2C3=C(O)CCCC3=Nc3nn(-c4ccccc4)c(O)c32)c(OC)c1OC (centres unmarked) | -6.94%
CCN(CC)C(=O)Cn1cc(C=O)c2cc(Br)ccc21 | 4.32%
Fc1ccccc1N1CCN(Cc2cccnc2)CC1 | -0.969%
C=CCN1C(=O)S/C(=C\c2ccc(OCC)c(OC)c2)C1=O | -5.14%
COC(=O)C1=C(C)N=C(C)/C(=C(/O)OC)C1c1ccc(C)cc1 (centres unmarked) | -1.2%
COC(=O)C1=C(C)NC(=O)N(C(C)=O)C1c1ccc(Cl)cc1 (centres unmarked) | 2.57%
Cc1nnc(C)n1/N=C/c1ccccc1C(F)(F)F | -0.339%
COc1ccccc1C(=O)N1CCN(c2ccc(Cl)cc2)CC1 | -0.425%
CCOC(=O)c1c(C)oc2cc(S(=O)(=O)O)c(O)cc12 | -1.25%
Cc1ccc(/S(CC2CC2(Cl)Cl)=N\S(=O)(=O)c2ccc(C)cc2)cc1 (centres unmarked) | 3.27%
COc1cccc(-c2cc(C(=O)N3CCCCC3C)no2)c1 (centres unmarked) | -0.601%
COc1cccc(CNC2CCSC2)c1OC (centres unmarked) | 1.88%
CCOc1ccc(/N=C2/S/C(=C\c3ccc4c(c3)OCO4)C(=O)N2CC)cc1 | -6.44%
Cc1cc(C)nc(SCCC(=O)Nc2cccc3ccccc23)n1 | -8.14%
COc1ccc(-c2noc(COc3cccc(C)c3C)n2)cc1 | -3.71%
O=C(NC1CCCCCC1)C1CCCN(S(=O)(=O)N2CCC3(CC2)OCCO3)C1 (centres unmarked) | 0.335%
CN1CCCN(Cc2cccc([N+](=O)[O-])c2)CC1 | -0.294%
CCN(Cc1ccccc1)S(=O)(=O)c1cc(C(=O)OC)n(C)c1 | -4.68%
CCOC(=O)C1=CN(Cc2ccc(Cl)cc2)C=C(C(=O)OCC)C1c1cccs1 | 0.219%

Compound | % Inhibition @ 10 uM
CC1CCCCN1S(=O)(=O)c1ccc(C(=O)Nc2ccc3ccccc3c2)cc1 (centres unmarked) | -2.8%
COc1ccccc1CC(C)N(C)CCc1ccccc1 (centres unmarked) | -5.11%
COc1cc2cc(C(=O)N[C@@H](CC(C)C)C(=O)NCC#N)[nH]c2cc1OC | -5.2%
CN(C)CCN(C)Cc1cccc(O)c1 | -6.12%
CN(C)CCNc1oc(/C=C/c2ccc(F)cc2)nc1C#N | -2.57%
Cc1nc2nc(NCc3ccc(OCc4ccccc4)cc3)nn2c(O)c1Cl | -2.4%
O=C(CCN1C(=O)c2ccccc2C1=O)N1CCN(CCO)CC1 | 4.11%
COC(=O)c1ccc2c(c1)C(=O)/C(=C/c1ccc(O)cc1)O2 | 3.45%
O=C(NCCc1ccc(Cl)cc1)c1cc(O)nc2ccc(S(=O)(=O)N3CCCCCC3)cc12 | 9.13%
CCOc1ccc(C(=O)Nc2cc(C(=O)O)cc(C(=O)O)c2)cc1 | -3.05%
C/C(=N\OCc1nc2c3c4c(sc3ncn2n1)CCCC4)c1cccs1 | 10.8%
COc1ccc(C(=O)/C=C/c2cc3ccccc3o2)c(OCc2ccccc2)c1 | -9.83%
O=C(CN1C(=O)S/C(=C/c2cccs2)C1=O)N1CCCC1 | -2.09%
CCOc1cc(C)c(/C=C2/NC(=O)N(Cc3ccccc3F)C2=O)cc1C(C)C | -1.81%
O=C(NCc1ccc2c(c1)OCO2)c1csc2c1CCCC2 | -3.21%
CCN(CC)Cc1csc2ccc(Cl)cc12 | -12.2%
CCOc1ccc(-c2csc(/C(C#N)=C/c3ccco3)n2)cc1 | 1.08%
COc1ccc(C2c3c(-c4ccccc4O)n[nH]c3C(=O)N2Cc2ccncc2)cc1OC (centres unmarked) | -3.49%
CCC1CCc2c(sc(NC(=O)Cc3ccc(Br)cc3)c2C(N)=O)C1 (centres unmarked) | -7.84%
Cc1nc(-n2cc(F)c(=O)[nH]c2=O)c2nc(C)oc2n1 | -1.32%
COc1ccc(-c2nc(CNS(=O)(=O)c3ccccc3F)cs2)cc1 | 4.14%
CCN1CCN(C(=O)c2ccc(CNS(=O)(=O)c3cccc(OC)c3)cc2)CC1 | -3.37%
Cc1nc([N+](=O)[O-])c(N2CCOCC2)n1Cc1ccccc1 | 1.44%
Cc1ccc([N+](=O)[O-])cc1NC(=O)c1ccc(-c2ccccc2)cc1 | -4.08%
CC(C)(C)OC(=O)NC(CC/N=C/C1=C(O)OC(C)(C)OC1=O)C(=O)O (centres unmarked) | 0.343%
COc1ccc(Cc2nc3ccccc3n2C)cc1 | -2.28%

Compound | % Inhibition @ 10 uM
O=C(O)C1CC=CCC1C(=O)Nc1ccc(N2CCN(CCO)CC2)cc1 (centres unmarked) | -1.61%
CCN1CCN(CCNC(=O)c2oc3c(c2C)-c2nn(Cc4cccc(Cl)c4)cc2CC3)CC1 | -7.67%
Cc1ccc(-n2ncc(C(=O)NCCCN3CCc4ccccc4C3)c2C2CCNCC2)cc1C | -5.36%
CCOc1ccc(C(O)Cc2nc3ccccc3n2C)cc1 (centres unmarked) | 7.1%
Oc1ccc(CN(CCc2ccccc2)Cc2ccccc2)cc1 | -4.04%
CC1CN(C)C(C)/C(=C\c2ccco2)C1=O (centres unmarked) | 3.32%
c1ccc2c(c1)CCN(CCCNc1nc3ccccc3n3cnnc13)C2 | -4.21%
COc1cc2nc(NCc3cccnc3)n3nc(-c4ccccc4)nc3c2cc1OC | -0.692%
CC(C)(C)c1cc(C(=O)Nc2cccc(C(=O)O)c2)cc(C(C)(C)C)c1 | 10.2%
CC(C)(C)/N=C(\NS(=O)(=O)c1ccc(Cl)cc1)c1ccc(Br)cc1 | -2.59%
O=C(Cc1ccc(F)cc1)NCCSc1c[nH]c2ccccc12 | 2.64%
Cc1cccc(NC(=O)COc2ccccc2)c1C | 9.94%
CS(=O)(=O)N(CC(=O)Nc1ccc2c(c1)OCCO2)Cc1ccccc1 | -6.86%
CCc1nonc1NC(=O)c1oc2cc(Br)ccc2c1C | -1.71%
CC1=C(C(=O)Nc2cccc(C)n2)C(c2cccs2)C2=C(O)CC(C)(C)CC2=N1 (centres unmarked) | -2.53%
C=CCn1c(SCCC)nc2ccccc2c1=O | -4.6%
CCCCN(Cc1ccccc1)Cc1ccc(C)o1 | 1.62%
CCN(CC)CCCCOc1ccc(C)cc1 | 1.13%
CC1=C(C(=O)Nc2ccccc2C)C(c2ccncc2)n2ncnc2N1 (centres unmarked) | -4.41% and -1.61%
Cc1cccc(C(=O)Nc2cccc(Cl)c2)c1 | -1.38%
Nc1ccc2c(c1)S(=O)(=O)c1cc(N)ccc1-2 | -0.216%
C=CCOC(=O)c1sc(N2C(=O)c3oc4ccccc4c(=O)c3C2c2ccc(C)cc2)nc1C (centres unmarked) | -2.92%
CCN(CCCNc1ncnc2onc(C)c12)Cc1ccccc1 | -1.42%
